From PubChem BioAssay AID504832 (National Center for Advancing Translational Sciences (NCATS), 2011)
Among all 310,000 compounds or so, about 18,000 (5.8%) were called active. Inconclusive results, whose numbers are uncertain, are shown with a selection of clear calls. The call rests on the fitted dose curve; in most records, active means well fitted inhibition curve with a large enough effect; inconclusive means small, poorly fitted or top-dose-only effect, or another doubt; inactive means no such curve, though single readings can be large or run the other way. No potency is given beside an inconclusive call; the fits are too rough.

Test: Primary qHTS for delayed death inhibitors of the malarial parasite plastid, 48 hour incubation
Conditions: P. falciparum luciferase growth in erythrocytes; series mostly up to 28.7 µM
In short: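 Erythrocytes infected with P. falciparum carrying an integrated firefly luciferase reporter (2% hematocrit, 0.1% parasitemia final) were exposed to compounds in RPMI 1640 with 0.5% Albumax at 37 C, 5% CO2. Growth inhibition was scored as reduced luminescence.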
Potency means the concentration at half of the fitted maximal effect; tags describe the fitted curve by direction and shape.

| SMILES | Potency |
| --- | --- |
| Cc1cc(C)c2oc(C(=O)Nc3nnc(C(C)C)s3)cc(=O)c2c1 | inactive |
| O=C(Cn1ncc2c([nH]c3ccccc32)c1=O)N1CCN(c2ccc(F)cc2)CC1 | inactive |
| Cn1c(=O)[nH]c(=O)c2c1nc(CN(Cc1ccccc1)Cc1ccccc1)n2CCN1CCOCC1 | inconclusive [inhibitor, partial curve, poor fit] |
| Cc1ccc(NC(=O)C2CCCCC2)c(O)c1 | inactive |
| COc1ccc(CN(CCC(c2ccccc2)c2ccc(OC(C)C)cc2)C(=O)CCl)cc1OC (configuration not stated) | inconclusive [inhibitor, single point] |
| CC(=O)c1ccccc1OCC(=O)Nc1cccc(S(=O)(=O)N2CCCC2)c1 | inconclusive [inhibitor, single point] |
| O=C(NC1CCc2ccccc21)c1cc(COc2cncc(Cl)c2)on1 (configuration not stated) | inconclusive [inhibitor, single point] |
| O=C(c1cccc(C(F)(F)F)c1)N1CCOC12CCN(c1ncc(C(F)(F)F)cc1Cl)CC2 | inconclusive [inhibitor, single point] |
| COc1ccc([C@H]2CC(=O)C=C(c3c(C)cc(C)cc3C)C2)cc1 | inconclusive [inhibitor, single point] |
| Cc1nc(NC(=O)c2cccc(Cl)c2)sc1C(=O)N1CCCCC1 | inconclusive [inhibitor, single point] |
| Fc1ccccc1-c1cc2ccccc2cn1 | inactive |
| CC(=O)c1cccc(NC(=O)CSc2ccc(-c3ccccn3)nn2)c1 | inconclusive [inhibitor, single point] |
| CCN(CC(=O)NCc1ccc(Cl)cc1)C(=O)/C=C/c1cc(OC)c(OC)c(OC)c1 | inconclusive [inhibitor, partial curve, poor fit] |
| N#C/C(=C\c1cc(O)c(O)c(O)c1)C(N)=O | active: 10.4 µM |
| COc1ccc([C@H]2CC(=O)C=C(c3cccc(CO)c3)C2)cc1 | inactive |
| Cn1cnnc1SCc1ccc(C(=O)N/N=C/c2cccs2)cc1 | inactive |
| CCN1/C(=C2\C(=O)N(C)C(=S)N2C)C=Cc2cc(C)ccc21 | active: 3.7 µM |
| Cc1ccc(S(=O)(=O)CCC(=O)OCC(=O)NCCc2ccccc2)cc1 | inconclusive [inhibitor, partial curve, poor fit] |
| Cc1ccc(NC2=CC(=O)CC(C)(C)C2)cc1C | inactive |
| CCN1CCN(S(=O)(=O)Cc2ccccc2)CC1 | inactive |
| CCCN(CC(=O)NC(=O)NC1CCCCC1)CC(=O)Nc1cc(Cl)ccc1Cl | inconclusive [inhibitor, single point] |
| COC(=O)c1ccc(CO/N=C2\CCCc3nonc32)cc1 | inactive |
| CCCC[N+]12CCC(CC1)C(=C(c1ccccc1)c1ccccc1)C2 | active: 1.31 µM |
| CCC(=O)N1CCN(C(C)=O)C1c1ccccc1 (configuration not stated) | inactive |

| SMILES | Potency |
| --- | --- |
| Clc1ccccc1Cc1noc(CN2CCCCC2c2ccccn2)n1 (configuration not stated) | inconclusive [inhibitor, partial curve] |
| CCCC(C)C1(CC)C(=O)NC(=Nc2ccccc2)NC1=O (configuration not stated) | inconclusive [inhibitor, partial curve, poor fit] |
| CN(CC(=O)Nc1ccccc1Cl)C(=O)c1ccccc1Sc1ccccc1C#N | inconclusive [inhibitor, single point] |
| CC1CCN(Cc2ccc(NC(=O)C3CCN(c4nnc(-n5cccc5)s4)CC3)cc2)CC1 | active: 7.38 µM |
| CN(C(=O)COC(=O)/C=C/c1ccc(C(F)(F)F)cc1)C1CCS(=O)(=O)C1 (configuration not stated) | inactive |
| O=C(COc1ccccc1)N1N=C(c2cccnc2)CC1(O)C(F)(F)F (configuration not stated) | inconclusive [inhibitor, partial curve] |
| COC(=O)CCSc1cc(NCCOC(C)=O)c([N+](=O)[O-])c2nonc12 | inactive |
| CC(C)(C)c1ccc(-n2ncc3c2CCCC3NC(=O)c2cnccn2)cc1 (configuration not stated) | inconclusive [inhibitor, single point] |
| C=CCSc1nc(N(CC)CC)c2sccc2n1 | inconclusive [inhibitor, partial curve, poor fit] |
| CN(Cc1ccccc1)c1nc2c(c(=O)[nH]c(=O)n2C)n1Cc1ccccc1Cl | inconclusive [inhibitor, single point] |
| N#CCCn1cc(C=C(C#N)C#N)c(-c2ccc(-c3ccccc3)cc2)n1 | inactive |
| Cc1cc(Nc2ccccc2)nc2cc(O)ccc12 | active: 0.329 µM |
| O=C(N/N=C/c1cccs1)c1ccc2nc[nH]c2c1 | inactive |
| O=C(c1ccc(Cn2c(=S)[nH]c3ccccc3c2=O)cc1)N1CCN(c2ccccn2)CC1 | inconclusive [inhibitor, single point] |
| CC(C)N(NC(=O)c1cccc2ccccc12)C(C)C | inactive |
| Cc1onc(-c2c(F)cccc2Cl)c1C(=O)N[C@@H]1C(=O)N2C(C(=O)O)C(C)(C)S[C@H]12 (some centres not stated) | inconclusive [inhibitor, partial curve, poor fit] |
| COc1ccc(N2CCN(C(=O)CSc3nc4nc(C)cc(C)n4n3)CC2)cc1 | inconclusive [inhibitor, single point] |
| CC1CN(C(=O)CCC(=O)NC(C)c2ccccc2)c2cc(Cl)ccc2O1 (configuration not stated) | inconclusive [inhibitor, single point] |
| COc1ccc(C(=O)Nc2ccc3ccccc3c2)c(OC)c1 | inactive |
| Cc1ccc(N(C(C)C(=O)Nc2ccc(S(=O)(=O)N3CCOCC3)cc2)S(C)(=O)=O)cc1 (configuration not stated) | inconclusive [inhibitor, single point] |
| CCc1cc2c3c([nH]c2cc1S(=O)(=O)NCCCOC)CC(C)(C)CC3=O | inconclusive [inhibitor, partial curve] |
| Cc1ccccc1Cn1c(C(=O)OC(C)C)cc2c1ccn2C | inconclusive [inhibitor, partial curve] |
| O=C(NCCN1CCOCC1)c1cc2sccc2n1Cc1ccc(Cl)cc1 | inconclusive [inhibitor, single point] |
| CC(=O)Nc1ccc(S(=O)(=O)Nc2cccc3[nH]ncc23)cc1 | inconclusive [inhibitor, single point] |

| SMILES | Potency |
| --- | --- |
| Cc1ccc(C)c(N(C(=O)Cn2nnc3ccccc32)C(C(=O)NCc2ccco2)c2ccncc2)c1 (configuration not stated) | inconclusive [inhibitor, single point] |
| CC1CCC(C(C)C)C(O)C1 (configuration not stated) | inactive |
| C#CCOCCOCCOCCNc1nc(N2CCN(C(=O)C(Cc3ccc(O)cc3)n3cc(C(N)C(C)CC)nn3)CC2)nc(N2CCN(C(=O)C(Cc3ccc(O)cc3)n3cc(C(N)C(C)CC)nn3)CC2)n1 (configuration not stated) | active: 9.28 µM |
| N#Cc1cccc(S(=O)(=O)N2CCN(c3ccnc4cc(Cl)ccc34)CC2)c1 | active: 13.1 µM |
| CCCn1c2ccccc2c2nnc(SC(CC)C(=O)Nc3cc(C)on3)nc21 (configuration not stated) | inconclusive [inhibitor, single point] |
| Cc1ccc(OCC(=O)NC(=S)Nc2ccc(Br)cn2)cc1C | inactive |
| O=C(/C=C\c1ccccc1)NCC(=O)N/N=C/c1ccc(O)cc1O | inconclusive [inhibitor, full curve, poor fit] |
| Cc1cccc(C(=O)N2CCCC(N3CCN(c4ccc(F)cc4)CC3)C2)n1 (configuration not stated) | inactive |
| Cc1ccc2cc(-c3noc(C(C)(C)C)n3)c(=O)[nH]c2c1 | inconclusive [inhibitor, partial curve, poor fit] |
| CC(C)Sc1nc2sccc2c(=O)n1-c1ccccc1 | inactive |
| CCOc1ccc(S(=O)(=O)c2c(C(=O)c3ccccc3)cnc3cc4c(cc23)OCCO4)cc1 | inconclusive [inhibitor, single point] |
| CCCCCn1c(=S)[nH]c2ncccc2c1=O | inactive |
| COc1cc(OC)c2c(c1C(CCN1CCOCC1)c1ccc(N(C)C)cc1)OC(=O)CC2c1ccc(N(C)C)cc1 (configuration not stated) | active: 10.4 µM |
| Cc1ccccc1C(=O)NC(=S)Nc1sc2c(c1C#N)CCCC2 | inactive |
| C/C(=C\c1ccccc1)CN1CCN(C(C)C)C(CCO)C1 (configuration not stated) | inactive |
| CCOC(=O)C1C(=O)C=C(N2CCOCC2)CC1c1cccc(OC)c1 (configuration not stated) | inconclusive [inhibitor, partial curve, poor fit] |
| O=C(Cc1ccccc1)N1CCN=C1SCc1ccc([N+](=O)[O-])cc1 | inconclusive [inhibitor, single point] |
| O=C(CSc1ccc(-c2ccc(F)cc2)nn1)NCC1CCCO1 (configuration not stated) | inactive |
| O=S(=O)(c1ccc(Cl)cc1)N1CCC2(CC1)OCCN2S(=O)(=O)c1cccs1 | active: 13.1 µM |
| O=C(Nc1ccc(Cl)cc1)OCc1cn(-c2ccc(Cl)cc2)nn1 | inactive |
| O=C(NCCn1ccc2ccccc21)c1ccc(S(=O)(=O)N2CCOCC2)cc1 | inconclusive [inhibitor, partial curve, poor fit] |
| COc1cccc(Cn2c(NCc3ccco3)nc3c2c(=O)n(C)c(=O)n3C)c1 | inconclusive [inhibitor, single point] |
| O=C(c1ccccc1Oc1ccccc1)N1CCN(c2ccccc2)CC1 | inconclusive [inhibitor, partial curve] |
| Cn1nc(C(F)(F)F)c(-c2ccc(Br)cc2)c1NC(=O)c1cccnc1 | inconclusive [inhibitor, single point] |
